Reference: PubChem BioAssay AID588342 (National Center for Advancing Translational Sciences (NCATS), 2011)
Out of some 360,000 compounds screened, about 25,000 (6.9%) were called active. The inconclusive results got no clear call from the source; some entries with a clear call stand among them for comparison. The call rests on the fitted dose curve; in most records, active means well fitted inhibition curve with a large enough effect; inconclusive means small, poorly fitted or top-dose-only effect; inactive means flat fitted curve, though single readings scatter. A potency beside an inconclusive call is a rough fit, not a confirmed value.

molecular target: Luciferin 4-monooxygenase (Photinus pyralis) (UniProt P08659); test: qHTS profiling assay for firefly luciferase inhibitor/activator using purifed enzyme and Km concentrations of substrates (counterscreen for miR-21 project); details: purified FLuc, luminescence inhibition; series mostly up to 57.5 µM; activity change, negative = inhibition: at the top concentration; further: nearly all actives have a fitted effect of over 55% in size;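 on activity change, negative = inhibition: plate controls were vehicle for no effect and reference inhibitor for full effect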
Sequence of UniProt P08659 (P08659 whole entry, looked up): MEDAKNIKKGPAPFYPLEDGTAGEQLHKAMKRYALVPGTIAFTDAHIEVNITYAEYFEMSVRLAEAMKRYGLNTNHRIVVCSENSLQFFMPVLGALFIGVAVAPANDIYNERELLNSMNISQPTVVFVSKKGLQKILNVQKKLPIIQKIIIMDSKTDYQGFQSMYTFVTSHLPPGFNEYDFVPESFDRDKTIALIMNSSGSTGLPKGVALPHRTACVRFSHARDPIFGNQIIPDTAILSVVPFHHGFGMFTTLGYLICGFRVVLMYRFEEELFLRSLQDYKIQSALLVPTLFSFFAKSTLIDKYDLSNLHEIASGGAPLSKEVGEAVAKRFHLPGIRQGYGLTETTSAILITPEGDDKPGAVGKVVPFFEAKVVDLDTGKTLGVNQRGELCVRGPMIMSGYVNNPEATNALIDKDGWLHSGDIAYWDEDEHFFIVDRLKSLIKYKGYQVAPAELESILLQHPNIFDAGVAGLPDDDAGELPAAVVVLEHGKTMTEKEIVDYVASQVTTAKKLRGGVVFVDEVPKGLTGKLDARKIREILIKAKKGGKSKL
Procedure, shortened: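 Biochemical qHTS of compounds, final roughly 60 µM downward over six points, against 10 nM purified firefly luciferase using Km concentrations of substrates (10 uM D-luciferin, 10 uM ATP) in Tris acetate pH 7.5 buffer; luminescence output.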
Potency means the concentration at half of the fitted maximal effect; tags describe the fitted curve by direction and shape.

| Compound | Potency | activity change, negative = inhibition |
| --- | --- | --- |
| Cc1ccccc1NC(=O)c1ccccn1 | inconclusive: 26.9 µM [inhibitor, single point] | – |
| COc1ccc2c(c1)c(CC(=O)Nc1cccc(F)c1C)c(C)n2C(=O)c1ccc(Cl)cc1 | – | inactive: -1.34% |
| CCOc1cc(/C=C2\SC(=O)N(c3ccc(O)cc3)C2=O)ccc1O | inconclusive: 26.9 µM [inhibitor, single point] | – |
| O=c1c(Cc2c(F)cccc2Cl)c(O)ccn1Cc1ccc(F)cc1 | – | inactive: 3.83% |
| O=C(/C=C/c1cccs1)NCc1ccccc1 | – | inactive: -19.2% |
| CCOC(=O)c1sc2ncn(C(C)C(=O)OCC)c(=O)c2c1C (centres undefined) | inconclusive: 30.1 µM [inhibitor, partial curve, poor fit] | – |
| CC(/C=N\NC(=O)Cn1cncn1)=C/c1ccc(C(C)C)cc1 | inconclusive: 30.1 µM [inhibitor, single point] | – |
| CSc1nnc2c(n1)[nH]c1c(C)cccc12 | inconclusive: 13.5 µM [inhibitor, partial curve, poor fit] | – |
| Cc1cc(C)c2c(=O)cc(C(=O)Nc3sc4c(c3C#N)CCCC4)oc2c1 | inconclusive: 10.7 µM [inhibitor, partial curve] | – |
| O=c1[nH]cnc2nc(-c3ccccc3)c(-c3ccccc3)nc12 | – | inactive: 2.5% |
| O=C(O)c1ccc(C(=O)O)c(C(=O)c2ccc(NC(=O)c3ccccc3)cc2)c1 | active: 19 µM | – |
| O=C(Nc1cc(C(F)(F)F)ccc1Cl)c1noc2c1CCCCC2 | inconclusive: 30.1 µM [inhibitor, partial curve, poor fit] | – |
| COCCCNC(=O)CSc1nc2cc3c(cc2c(=O)n1CCCCCC(=O)NCCc1ccc(OC)c(OC)c1)OCO3 | – | inactive: -1.35% |
| COc1cccc(N=Nc2ccc3cccnc3c2O)c1 | active: 8.49 µM | – |
| O=[N+]([O-])c1cccc(-c2c(-c3ccccc3)ncc3ccc(F)cc23)c1 | inconclusive: 33.8 µM [inhibitor, single point] | – |
| CCc1nn2c(=O)cc(COC(=O)c3cccc(NC(=O)c4ccccc4C)c3)nc2s1 | – | inactive: 0.437% |
| CCc1ccc(OCC(=O)Nc2ccc3[nH]ncc3c2)cc1 | inconclusive: 23.9 µM [inhibitor, single point] | – |
| O=C(N/N=C/c1ccc(OC2CSC2)cc1)c1ccc(CN2CCOCC2)cc1 | inconclusive: 10.7 µM [inhibitor, partial curve] | – |
| CC(=O)C1=C(O)C(=O)N(c2ccc(Br)cc2)C1c1cccc([N+](=O)[O-])c1 (centres undefined) | – | inactive: 0.615% |
| CCCS(=O)(=O)N1CCCC(C(=O)N2CCN(c3ccccn3)CC2)C1 (centres undefined) | – | inactive: -2.84% |
| O=C(CCCc1nc2ccccc2s1)Nc1ccc(N2CCOCC2)cc1 | – | inactive: -9.47% |
| O=C(Cc1ccccc1)NCC(=O)N1CCC2(CC1)NCCc1[nH]cnc12 | – | inactive: 2.86% |
| COc1ccc(Cn2c(-c3ccc(Br)cc3)c[n+]3ccccc23)cc1 | active: 10.7 µM | – |
| O=C(NC(=S)NCCc1ccccc1)c1ccccc1 | inconclusive: 21.3 µM [inhibitor, single point] | – |
| O=C(CSc1nnc2ccccn12)Nc1ncc(Cl)cc1Cl | inconclusive: 23.9 µM [inhibitor, partial curve] | – |

| Compound | Potency | activity change, negative = inhibition |
| --- | --- | --- |
| COc1cccc(N2CCN(C(=O)CNC(=O)c3sc4ccccc4c3Cl)CC2)c1 | inconclusive: 37.9 µM [inhibitor, partial curve, poor fit] | – |
| COc1cccc(/C=C/C(=O)c2ccc3c(c2)OCO3)c1OC | active: 0.953 µM | – |
| COc1ccc(C(=O)NC23CC4CC(CC(C4)C2)C3)cc1 | active: 7.57 µM | – |
| CCC(C)(C)C1CCC(=NNc2nc3ccccc3[nH]2)CC1 (centres undefined) | active: 12 µM | – |
| CN(C)c1ccc(/C=C/c2ccncc2)cc1 | inconclusive: 2.69 µM [inhibitor, full curve] | – |
| COC(=O)C1=C(CN2CCCc3ccccc32)NC(=O)NC1c1ccc(F)cc1 (centres undefined) | inconclusive: 12 µM [inhibitor, partial curve] | – |
| COc1ccc2c(CCNC(=O)Nc3ccccc3)c[nH]c2c1 | – | inactive: 0.0813% |
| COc1ccc(/C=C/C(=O)NC(=S)Nc2ccc(S(=O)(=O)Nc3cc(C)on3)cc2)cc1 | active: 15.1 µM | – |
| Cc1ccc(-c2cn3cc(C)ccc3n2)cc1 | active: 0.107 µM | – |
| CCc1cc2c(=O)c(-c3nc(C)cs3)c(CCCC(=O)O)oc2cc1O | inconclusive: 23.9 µM [inhibitor, partial curve] | – |
| C=CCN(C(=O)c1oc2c(Cl)cc(C)cc2c1C)C1CCS(=O)(=O)C1 (centres undefined) | active: 10.7 µM | – |
| O=C1[C@H](CC[C@H](O)c2ccc(F)cc2)[C@@H](c2ccc(O)cc2)N1c1ccc(F)cc1 | – | inactive: 0.174% |
| CCOC(=O)C1CCCN(C(=O)c2sc3nc(-c4ccc(F)cc4)cn3c2C)C1 (centres undefined) | inconclusive: 30.1 µM [inhibitor, partial curve, poor fit] | – |
| COc1ccc(Cl)cc1NC(=O)Cn1ncc2c3ccccc3n(Cc3ccccc3)c2c1=O | – | inactive: -6.64% |
| Cc1c(C(=O)N/N=C/c2cccnc2)sc(N)c1C#N | – | inactive: -12.4% |
| CCOC(=O)/C(C#N)=C\c1c(C)cc(C)c(COC(C)=O)c1C | inconclusive: 26.9 µM [inhibitor, partial curve, poor fit] | – |
| COc1ccc(N2C(=O)C(Cl)=C(N3CCCC(C)C3)C2=O)cc1 (centres undefined) | inconclusive: 19 µM [inhibitor, partial curve] | – |
| O=C(O)CSc1nnc(NC(=O)c2ccc3c(c2)OCO3)s1 | active: 1.9 µM | – |
| O=C(CCCc1c[nH]c2ccccc12)N1CCCCCC1 | inconclusive: 26.9 µM [inhibitor, single point] | – |
| c1cncc(Nc2nc(-c3cccs3)cs2)c1 | active: 19 µM | – |
| O=C1C2C3C=CC(C4CC34)C2C(=O)N1/N=C/c1ccc([N+](=O)[O-])s1 (centres undefined) | – | inactive: -20.2% |
| Nc1nc(CCl)nc(Nc2ccccc2)n1 | inconclusive: 19 µM [inhibitor, partial curve] | – |
| COc1ccc(CNC(=O)CN(c2cc(C(F)(F)F)ccc2Cl)S(C)(=O)=O)cc1 | inconclusive: 16.9 µM [inhibitor, partial curve, poor fit] | – |
| CCn1c(C)c(C)c2cc(C(=O)NCc3ccc(N(C)C)cc3)ccc21 | inconclusive: 21.3 µM [inhibitor, partial curve, poor fit] | – |
